Test results reported in the BET-seq Pho4 binding data (Le et al. 2018).
Some of the results follow. Values were computed here from the reads of four pooled replicates and scatter widely.

Each sequence was assayed against T1, Pho4 (S. cerevisiae) (UniProt P07270) (assay: relative binding free energy (BET-seq); higher = weaker binding). Conditions: reference: library average.
T1 sequence: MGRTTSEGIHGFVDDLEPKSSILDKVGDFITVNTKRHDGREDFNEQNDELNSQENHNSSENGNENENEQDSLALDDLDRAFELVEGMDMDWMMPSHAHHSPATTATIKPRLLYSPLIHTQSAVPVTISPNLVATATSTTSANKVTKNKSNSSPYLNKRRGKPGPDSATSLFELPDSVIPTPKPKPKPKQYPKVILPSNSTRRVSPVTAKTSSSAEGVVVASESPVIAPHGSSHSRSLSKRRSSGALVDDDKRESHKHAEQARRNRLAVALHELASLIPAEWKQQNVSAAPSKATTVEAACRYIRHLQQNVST

Sequence	relative binding free energy [kcal/mol]
GGGAACACGTGAGGAA	0.39
TTGGTCACGTGATAGA	0.33
TCGGTCACGTGACTGG	0.27
ATTGGCACGTGGCCTT	-0.24
CGTGTCACGTGGAGCT	-0.09
TGTTGCACGTGGCGCT	-0.12
CCGTTCACGTGTATGT	0.26
TTTTTCACGTGCTGTA	0.36
GGATGCACGTGGTAAG	0
GTGAACACGTGGTTAT	0.02
GTATACACGTGATGGG	0.15
GGGGACACGTGATGTC	0.26
AGGATCACGTGTGTAA	0.16
CGAGCCACGTGTTGGG	0.05
GTGGGCACGTGCGTTG	-0.17
AAGAACACGTGTAAGG	0.24
CGGTGCACGTGTTGAT	0
TTGCGCACGTGCGGGC	-0.16
ATGGTCACGTGAGTAT	0.32
GTTCACACGTGGCGGT	-0.01
TTTTTCACGTGAGGTG	0.43
TTAATCACGTGCAGTG	0.06
TCTGGCACGTGAAGTA	0.17
TAAATCACGTGTAAGT	0.24
GAAGTCACGTGCATTT	0.31
ATTGTCACGTGGGGGT	-0.08

Sequence	relative binding free energy [kcal/mol]
TTTATCACGTGCTTTC	0.09
ATTGGCACGTGACGTT	0.02
TAAAGCACGTGTTGGA	-0.06
TATTTCACGTGCACTT	0.28
TGCGACACGTGAGGAT	0.33
GATGACACGTGATTGG	0.15
ATAGTCACGTGGCATG	-0.14
TGTCACACGTGATGGT	0.16
TTGAACACGTGATAGT	0.07
CGGAGCACGTGTGGTA	-0.05
TTTCTCACGTGTTATT	0.16
GGTGGCACGTGCCGTA	-0.18
CAGAGCACGTGCTGGG	-0.04
ATTTACACGTGGTTGT	0.08
TAGTGCACGTGCTAAG	-0.08
TGAAGCACGTGGCGGA	-0.14
TGGTACACGTGGGGGT	-0.08
GCATTCACGTGTTATG	0.25
TTTGTCACGTGAATGT	0.29
GGTATCACGTGGATCG	0.32
TGATTCACGTGAATTG	0.36
GTTCACACGTGTGTGA	0.05
TAGGTCACGTGCAGTT	0.06
TGACTCACGTGATTTT	0.31
ATAATCACGTGAATGG	0.28
CTAAGCACGTGTTAGG	-0.06

Sequence	relative binding free energy [kcal/mol]
CTTTGCACGTGGATAT	-0.01
CTTGACACGTGCTTGG	-0.06
TATTGCACGTGTTGAA	-0.04
TTTCTCACGTGTGAGG	0.24
TGGGCCACGTGATTGG	0.11
TTTTTCACGTGAGTCA	0.32
TTGTGCACGTGTTCGA	-0.07
GATTACACGTGGTTAA	0.14
TAATTCACGTGGGAAG	0.16
AAGGGCACGTGGAAGA	0.05
GGGCTCACGTGGGAAG	0.22
GCTGGCACGTGGGGGG	-0.26
CTATTCACGTGTAGTT	0.09
AGTACCACGTGTGTTT	-0.06
TGTACCACGTGGTTTT	-0.13
ACTGGCACGTGATTGG	-0.07
ACTGTCACGTGTGGAT	0.09
GGAAGCACGTGTGAAG	0.11
CGATGCACGTGTTGGA	0.03
AATTACACGTGATGAG	0.36
AGCATCACGTGTAGGT	0.04
AGAAACACGTGTGGTA	0.08
ACATTCACGTGGGGGC	0.25
GATGGCACGTGGGTAG	-0.1
CTTTACACGTGAATTT	0.33
CGGCGCACGTGTTGGG	-0.14

Sequence	relative binding free energy [kcal/mol]
GGTGTCACGTGAGTGT	0.34
GGTAACACGTGTATAT	0.08
CGCAGCACGTGGTAGT	-0.13
GTAGCCACGTGATGGT	0.16
GTTTGCACGTGTGCTG	0.13
TTTGCCACGTGGGGGC	-0.18
GTGTGCACGTGCAGTG	0.05
GAGTACACGTGAGTTT	0.19
TTAATCACGTGTAGAT	0.07
CATTTCACGTGGGCTT	0.22
GCATGCACGTGTGGCT	0.02
TGGGTCACGTGTCCGT	0.08
TTTAGCACGTGGACTG	-0.04
TGAGGCACGTGGCGGA	-0.24
ATTTTCACGTGCAGTG	0.33
GGGAGCACGTGGGGGT	-0.17
TGCGACACGTGCGGGC	0.11
TTTTTCACGTGATAGT	0.33
TCGGGCACGTGATGCG	0
TGTGTCACGTGTAGGG	-0.02
TTGCTCACGTGAGATG	0.33
TTATACACGTGGTGAT	-0.12
TTAGTCACGTGGTCCG	-0.02
GATGACACGTGGCTTG	0.03
TGGCGCACGTGCGAAG	0.13
GGTAGCACGTGAGGGT	0.27

Sequence	relative binding free energy [kcal/mol]
GTTTTCACGTGACGGA	0.5
ATTTGCACGTGTCAGG	0.1
TAGGTCACGTGGATGA	-0.06
TGGTCCACGTGGTGGT	0.09
GTGCTCACGTGAGTAT	0.43
AAGTGCACGTGTCGAG	0.03
TAGTTCACGTGCTATT	0.2
ACAGTCACGTGGTTAT	0.04
TGTGCCACGTGCGTGG	-0.24
AGCGGCACGTGTATGT	-0.05
TTGGGCACGTGCCATG	-0.21
AGGGGCACGTGTCTGC	-0.14
TGCGTCACGTGTAGGG	0.03
GCGATCACGTGTGTTG	0.19
TGGTTCACGTGTATAG	0.25
AGTGTCACGTGGCAGT	0.06
GTTATCACGTGTGTGG	0.27
GTAGTCACGTGGATAG	0.19
GCGCGCACGTGAGGGG	0
AGGTACACGTGGTAGG	-0.08
ATAGTCACGTGGCGGA	0.07
TGTGGCACGTGGGCGA	-0.17
TGGATCACGTGTATTC	0.1
TGCTGCACGTGGGGCA	-0.1
GGTACCACGTGTGGTG	-0.04
AGCGTCACGTGGTATG	-0.03

Sequence	relative binding free energy [kcal/mol]
TTTTTCACGTGGGCGC	0.21
TGGGGCACGTGACGGA	0.03
GTGAGCACGTGGAAAT	0.13
TCTTTCACGTGGTTAA	0.19
TGTCGCACGTGATTAT	0.09
CGCGTCACGTGAGAGG	0.23
GTGGCCACGTGATTGG	0.1
TGGCCCACGTGGCGGG	-0.35
GTGCGCACGTGCAGGG	-0.1
TAGGTCACGTGAGGCC	0.3
GTGTTCACGTGGGCTA	0.13
GTGGTCACGTGTCTTG	0.2
GTTGCCACGTGTATAG	0.06
TTGAACACGTGTTAGA	-0.01
CGTCACACGTGTTGTT	0.07
TGATGCACGTGTAAGG	0.15
TTATGCACGTGTTTAC	-0.1
AATATCACGTGTGAGG	0.17
ATTCTCACGTGGAGGG	0.15
GAGTACACGTGACTGG	0.28
GAGAACACGTGGGTTT	-0.02
TTTATCACGTGAGGTC	0.27
GGGTACACGTGAAGTG	0.32
GGTAACACGTGGGAGC	0
TTCGGCACGTGAGCGT	0.03
AAGATCACGTGTTAAT	0.06

Sequence	relative binding free energy [kcal/mol]
GTTATCACGTGCCGGT	0.2
TGGTGCACGTGGAACT	0.1
TGGCGCACGTGATAAG	0.15
GAACTCACGTGTGGGT	0.28
TTTAACACGTGTTTCT	0
GGAATCACGTGATTTG	0.43
TGGACCACGTGGGTAA	-0.18
AGGAGCACGTGAGGGC	0.17
GAATTCACGTGTTAAT	0.27
CGGCTCACGTGTAGTG	0.21
GAGTTCACGTGGTCAG	0.15
CGGGGCACGTGAATAG	0.16
CAATGCACGTGTTTGT	0.01
TTGCGCACGTGGTGGA	-0.11
GGCTGCACGTGGGAGA	0.01
AAGTACACGTGTGCGG	0.01
GAAGGCACGTGTAGCG	-0.1
GTGGTCACGTGTCAAT	0.11
AAGATCACGTGGATGT	0.24
TTCAGCACGTGGTGGT	-0.09
AAGTTCACGTGGGTTG	0.08
GGTCTCACGTGGGAGC	0.18
GGGTGCACGTGAATAA	0.33
GGACGCACGTGTGGGC	-0.08
TGTTCCACGTGGTTAA	0.06
GTGGCCACGTGGAAGA	0.07

Sequence	relative binding free energy [kcal/mol]
GTGGACACGTGGGGGT	-0.08
GGCATCACGTGGTGGA	0.15
AGTGTCACGTGTATTA	0.19
AGAAACACGTGTTGTT	0
GGGAGCACGTGGCTAG	-0.16
TTGTGCACGTGGAGTG	0.03
TGTGGCACGTGTAAAA	0.12
TGGGGCACGTGTCAAT	-0.19
GAGTGCACGTGGAAAA	0.3
TGTTACACGTGGTGCG	0.18
TACGTCACGTGTGTTT	0.15
GTAGGCACGTGGATCT	0
TGTTACACGTGATTGT	0.23
TGTAGCACGTGTGGAG	0.04
CTTGGCACGTGGTCTG	-0.25
TGTGTCACGTGCGACG	0.06
GATGACACGTGAAGGG	0.44
GTCTGCACGTGGTGTA	0
GTTCGCACGTGCGGTT	0.03
TTCGTCACGTGGTTCG	-0.12
GTAGCCACGTGGTATT	0.03
GACGTCACGTGCGGGT	-0.03
TAGTGCACGTGTTGTA	-0.01
GGAATCACGTGGCTTG	0.07
TTCGTCACGTGTGTCG	0.18
TAGTGCACGTGGAGTT	0

Sequence	relative binding free energy [kcal/mol]
TAATGCACGTGGGCGT	-0.11
GGTTACACGTGCTTTG	0.11
AGGATCACGTGATGAA	0.42
AGGGGCACGTGAAATA	0.06
GGTGACACGTGAATCG	0.3
CTGTACACGTGGTCGT	0.06
ATGGTCACGTGTATTA	0.07
TTGTACACGTGATTGA	0.14
TTGTTCACGTGTTGAA	0.28
TAATACACGTGTTTGG	-0.06
TGCAACACGTGGTATT	-0.05
TCAAGCACGTGGGAGT	-0.21
GGTAGCACGTGGTGAC	-0.09
AGGGACACGTGGGGAG	-0.11
ATGAGCACGTGTGGAA	-0.07
GGATTCACGTGTAAGA	0.4
GAGTACACGTGTGGTG	0.13
TGATTCACGTGGTCTA	0.08
AATGGCACGTGTTGGC	-0.12
GGAGGCACGTGTGGAC	-0.15
ATGTGCACGTGGGGGC	-0.23
GTGTCCACGTGTCTGG	0.19
